Measured values published in paper PMC4336329 (PLoS ONE, 2015).
Screen size: about 310,000 compounds; about 14,000 (4.5%) showed an effect of 50% or more. Effects have a minus sign here. The list shows a part of the results.

target: human ether-à-go-go-related gene (hERG) potassium channel (human, UniProt Q12809); assay: primary screen, population patch clamp on CHO cells stably expressing hERG
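Further: peak tail current of the secondary pulse compared with the same well before compound.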

Sequence of human ether-à-go-go-related gene (hERG) potassium channel (Q12809 whole entry, looked up): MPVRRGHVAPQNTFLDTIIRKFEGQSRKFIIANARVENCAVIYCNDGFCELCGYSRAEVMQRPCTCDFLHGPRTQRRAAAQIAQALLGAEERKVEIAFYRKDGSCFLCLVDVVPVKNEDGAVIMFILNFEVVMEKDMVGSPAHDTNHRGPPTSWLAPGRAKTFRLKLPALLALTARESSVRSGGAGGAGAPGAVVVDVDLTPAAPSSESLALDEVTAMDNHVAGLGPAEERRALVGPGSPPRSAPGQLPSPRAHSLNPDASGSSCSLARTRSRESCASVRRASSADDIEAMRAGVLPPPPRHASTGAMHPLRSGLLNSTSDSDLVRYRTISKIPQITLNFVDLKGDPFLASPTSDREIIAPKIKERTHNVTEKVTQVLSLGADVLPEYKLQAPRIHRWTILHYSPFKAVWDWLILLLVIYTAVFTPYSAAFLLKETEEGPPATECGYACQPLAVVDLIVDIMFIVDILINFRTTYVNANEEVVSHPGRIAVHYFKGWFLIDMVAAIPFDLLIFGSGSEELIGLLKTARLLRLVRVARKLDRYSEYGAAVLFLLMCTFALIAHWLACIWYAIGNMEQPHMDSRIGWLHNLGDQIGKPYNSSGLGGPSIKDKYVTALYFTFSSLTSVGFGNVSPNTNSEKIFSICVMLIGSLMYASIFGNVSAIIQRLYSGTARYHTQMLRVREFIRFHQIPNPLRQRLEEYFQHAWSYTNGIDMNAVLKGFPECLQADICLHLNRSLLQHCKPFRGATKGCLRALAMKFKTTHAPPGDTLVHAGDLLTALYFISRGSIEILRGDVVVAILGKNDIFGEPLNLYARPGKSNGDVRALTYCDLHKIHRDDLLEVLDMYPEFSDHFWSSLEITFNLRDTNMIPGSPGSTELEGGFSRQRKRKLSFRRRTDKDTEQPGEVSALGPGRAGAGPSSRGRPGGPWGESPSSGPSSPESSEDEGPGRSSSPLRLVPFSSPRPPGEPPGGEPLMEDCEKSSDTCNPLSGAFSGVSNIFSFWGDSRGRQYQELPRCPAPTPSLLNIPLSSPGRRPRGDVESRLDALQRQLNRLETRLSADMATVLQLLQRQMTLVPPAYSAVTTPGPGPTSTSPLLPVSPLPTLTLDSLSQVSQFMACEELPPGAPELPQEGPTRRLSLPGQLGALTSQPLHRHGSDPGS

Compound	hERG current change (%, negative = inhibition) at 10uM [%]
COC(=O)c1sccc1NC(=S)N1C(C)CCCC1C (stereo not shown)	-7.4
COc1ccc(-c2nnc(NC(=O)CSc3ccc(C)cc3)s2)cc1OC	-2.12
CCOc1ccc(C2C(C(=O)O)c3ccccc3C(=O)N2CCN2CCOCC2)cc1 (stereo not shown)	25.4
O=C(c1ccccc1)c1c[nH]c2cc3c(cc2c1=O)OCCO3	0.662
CN1C(=O)C(C)(C)c2cc(S(=O)(=O)NCC(=O)NCc3ccccc3)ccc21	7.72
CCOC(=O)C1CCN(C(=O)CCCn2c(=O)c3cccn3c3cccnc32)CC1	-50
CO/N=C/C(c1ncc(C(F)(F)F)cc1Cl)S(=O)(=O)c1ccccc1 (stereo not shown)	5.89
CC(C)C(NC(=O)c1ccc(F)cc1)C(=O)N1CCC1 (stereo not shown)	9.27
COc1ccc(OC)c(NC(=O)CN2C(=O)NC3(CCOc4ccccc43)C2=O)c1 (stereo not shown)	-2.22
CCCCS(=O)(=O)C1CCS(=O)(=O)C1 (stereo not shown)	2.16
CN(Cc1ccc(OC(F)F)cc1)Cc1nc2c(Br)cc(Br)cc2c(=O)[nH]1	-5.29
N/C(=N\OC(=O)c1ccc(Cl)cc1)c1cccnc1	-17.7
CN(CC(=O)N1CCc2ccccc2C1)S(=O)(=O)c1ccc2c(c1)c(=O)n(C)c(=O)n2C	-15.6
Cl.O=C(Cn1c(NCCCO)nc2ccccc21)c1ccc(Cl)cc1Cl	-43.9
CC1(C)Cc2c(sc(NC(=O)C(=O)N3CCOCC3)c2C(N)=O)CO1	10.2
CC(C)(C)N1C(=O)Cc2c1nc(N)c1c(N)nc(N3CCCCC3CO)c(C#N)c21 (stereo not shown)	-24.3
CCCCn1c(=O)n(C)c(=O)c2c(C(F)(F)F)cc(-c3ccncc3)nc21	-28
CCCCn1c(N)c(N(Cc2ccccc2OC)C(=O)c2c(CC)noc2C)c(=O)[nH]c1=O	10.6
Cc1ccc(S(=O)(=O)NC(=O)NC(=O)N(C)S(=O)(=O)c2ccc(C)cc2)cc1	12.7
c1ccc(Nc2nc3ccccc3s2)cc1	15.7
Cl.OC(COCC1COc2ccccc2O1)CN1CCN(c2ccccc2)CC1 (stereo not shown)	-64.1
CC(C)c1ccc2[nH]c(O)c(N=NC(=O)c3cccc(S(=O)(=O)Nc4cccc(Cl)c4)c3)c2c1	5.55

Compound	hERG current change (%, negative = inhibition) at 10uM [%]
Cc1ccc(Nc2ccc(C(=O)NC3CCCCC3)cn2)cc1	7.98
O=C(NCc1ccccc1)c1nnc(CS(=O)(=O)c2ccccc2)o1	-9.74
COCCNC(=S)NC1CC2CCCC(C1)N2Cc1ccco1 (stereo not shown)	-12.6
Cc1ccc(-n2ncc3c(=O)n(CC(=O)N4CCN(c5ccccc5F)CC4)cnc32)cc1C	18
O=C(NC1CCN(Cc2ccc(Cl)cc2)CC1)c1cn(-c2ccccc2)nc1-c1cccnc1	-75.1
O=C(Cc1ccc(F)cc1)N1CCC(CC2CC(c3ccc(Cl)cc3)=NO2)(C(=O)NCC2CCCCC2)CC1 (stereo not shown)	-72.3
O=C(O)c1ccccc1SCc1nc2ccccn2c1Br	16.1
CCCCOC(=O)Nc1cccc(C(C)=O)c1	-6.02
CN(C)C(=O)N(CCCN1CCOCC1)Cc1cccc2ccccc12	5.1
Cn1nnnc1SCC(=O)NC1CCCCC1	7.6
O=C(C[n+]1ccncc1)c1ccccc1.[Br-]	13
CNc1cc(Cl)nc(SC)n1	20.6
CC/C=C/C(=O)N1CC2(CC(c3cccc(NC(=O)c4ccccc4)c3)=NO2)C[C@@H]1C(N)=O (stereo partly shown)	8.65
CC1CCCCN1C(=O)COc1ccc(NC(=O)c2ccco2)cc1 (stereo not shown)	2.31
C=CCN=C(NC#N)SC	20.8
COc1nc(OC)nc(N(C)CCO)n1	5.64
Cn1c(=O)c2c(ncn2CC(=O)OCc2ccccc2)n(C)c1=O	-6.21
COc1nc(Nc2ccc(OC)c(Cl)c2)nc(OC)n1	9.14
Cc1ccc(C)n1-c1ccc(C#N)cn1	3.89
CCCCCC(=O)NNC(=O)c1ccc(-c2ccccc2)cc1	3.38
Nc1nnc(SCC(=O)Nc2ccc(N3CCOCC3)cc2)s1	-3.83
CN(C)/N=C/c1cn(-c2ccccc2)nc1-c1cccnc1	-15.9

Compound	hERG current change (%, negative = inhibition) at 10uM [%]
C=CCC(c1ccccc1)N(C(C)=O)c1ccco1 (stereo not shown)	7.57
COc1ccccc1CN1CCNC(=O)C1CC(=O)NCc1csc(C)n1 (stereo not shown)	12.1
COC(=O)c1ccc(NC(=O)CCc2nnc3ccc(NCc4ccco4)nn23)cc1	18.4
COc1ccc(/C=C2/Sc3ccc(C(=O)NCCN4CCCCCC4)cc3NC2=O)cc1	1.31
CC(/C=N\NC(=O)c1cc(C)oc1C)=C\c1ccccc1	19.5
COc1ccc(OCc2cc(C(=O)N(Cc3nccn3C)C(C)C)no2)c2ccccc12	-43.7
O=C(CN1CCN(c2ccccc2O)CC1)NCCCc1ccccc1	-2.06
Cn1nc(C(F)(F)F)c2cc(C(=O)NC3CC3)sc21	6.25
CCOc1ccc(C2C(C(=O)Nc3ccccc3)=C(C)N=c3s/c(=C/c4cccc(OCC(=O)O)c4)c(=O)n32)cc1 (stereo not shown)	0.647
CC(C)(C)c1ccc(O)c(CN2CCN(c3ccccc3)CC2)c1	13.6
O=C1c2ccccc2NC(c2ccc(O)cc2)N1Cc1ccco1 (stereo not shown)	-24.3
COCCN(Cc1cc2ccc(C)c(C)c2nc1Cl)C(=O)N1CCOCC1	-11
CN(Cc1ccccc1)C(=O)CNC(=O)C12CC3CC(CC(C3)C1)C2	-16.3
NS(=O)(=O)c1ccc(CCNC(=O)/C=C/c2cccc([N+](=O)[O-])c2)cc1	-13.7
CCOC(=O)C1=C(C)NC(=O)NC1c1ccc(OCC(N)=O)cc1 (stereo not shown)	-0.605
CC1(CCc2ccccc2)NC(=O)N(CC(=O)N2CCCCCC2)C1=O (stereo not shown)	-2.67
CS(=O)(=O)c1ccc(Cl)c(NC(=O)COC(=O)c2ncc(Cl)c(Cl)c2Cl)c1	-21.3
CN(Cc1ccnc2ccccc12)C(=O)C1CCC(=O)N(Cc2ccccc2F)C1 (stereo not shown)	-43.1
O=C1C[C@@H](c2ccc(O)cc2)Oc2cc(O)cc(O)c21	-2.14
CCn1cc(C(=O)NCCO)c(=O)c2cc(F)c(N3CCN(C)CC3)cc21.Cl	1.03
COC(=O)Cc1ccc(OCC(=O)Nc2ccc(OC(F)(F)F)cc2)cc1	-0.104
COc1ccc(C2=NN(C(=O)CSc3nc(=O)n4cccc(C)c4n3)C(c3ccc(C)cc3)C2)cc1 (stereo not shown)	4.53

Compound	hERG current change (%, negative = inhibition) at 10uM [%]
Cc1ccc2cccc(N=Cc3c(C)[nH]n(-c4ccccc4)c3=O)c2n1	5.75
Cc1ccc(N2C(=O)[C@@H]3[C@H](C2=O)[C@H]2C=C(C(=O)c4ccccc4)C=CN2[C@@H]3C(=O)c2ccc(Cl)cc2)cc1	11.2
O=C(Nc1ccccc1)c1ccccc1NC(=O)C1CCCCC1	8.74
O=C(O)c1cc2cc(Cl)ccc2oc1=O	1.71
COC(=O)Nc1ncc(CN2CCc3ccccc3C2)s1	-43
Cc1c(Cl)c([N+](=O)[O-])nn1CC(=O)NC(C)C1CC2CCC1C2 (stereo not shown)	-12.9
O=C(Nc1ccccc1)C1CC(=O)n2c(nc3ccccc32)N1 (stereo not shown)	2.29
COc1ccc(/C=N/NC(=S)Nc2ccccc2)cc1COc1ccccc1F	-1.62
COc1cc(Cl)c(C)cc1NC(=O)CNC(=O)Cn1cnc2ccccc2c1=O	-4.59
CC(C)(C)NC(=S)NC(=O)C12CC3CCC(CC(C3)C1)C2	11.5
COc1ccccc1NC(=O)c1ccc(NC(=O)c2nc3nccc(C)n3n2)cc1	-6.83
Nn1cnnc1SCC(=O)Nc1ccc2c(c1)OCO2	2.24
CCCC(=O)Nc1ccc(-c2cnc(-c3ccc(NC(=O)CCC)cc3)nc2)cc1	7.97
CCOc1ccc(C(C)=O)cc1CN1c2ccc(S(N)(=O)=O)cc2CC1C (stereo not shown)	17.9
O=C(CSc1nnc(-c2ccccc2)o1)Nn1cnnc1	-2.82
CCOC(=O)c1cnc2c(-c3ccccc3)cnn2c1N	9.38
CC(=O)C1C(c2ccc(Cl)cc2)NC(=O)NC1(O)C(F)(F)F (stereo not shown)	18.5
CCC(ONc1ccccc1C(F)(F)F)(C(=O)NN(C)C)c1ccccc1 (stereo not shown)	-1.27
CCOc1ccc(N(C(=O)c2cnsn2)C(C(=O)NC2CCCCC2)c2ccncc2)cc1 (stereo not shown)	-69.4
O=C(OCc1cc(-c2ccccc2)no1)c1ccc2ccccc2n1	12.2
COc1ccc(OC)c(C2C(C(N)=O)=C(C)Nc3nc(CCCO)nn32)c1 (stereo not shown)	14.8
Cc1cc(C)n(CC(=O)Nc2ccc([N+](=O)[O-])cc2)n1	17.7
